# Source: the supplement of paper PMC8728848
# The other results are listed elsewhere or left out.
# Experiments:
# Assay in all cases: glycan array binding signal (z-score within array); higher = stronger binding
# Settings in all cases: glycan notation: IUPAC condensed, linker removed
# [1] = biological target: Neu5Ac(a2-3)Gal6S(b1-4)[Fuc(a1-3)]GlcNAc
# Procedure, shortened: (§1)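 The binding signal is a Z-score computed within each array and averaged over linkers. Arrays of the same protein sequence at different concentrations or buffers were also averaged together. Data originate from 3228 arrays in the Consortium for Functional Glycomics database, kept only where the protein sequence was available.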
# Neu5Ac(a2-3)GalNAc = biological target: Neu5Ac(a2-3)GalNAc
# Procedure, shortened: as §1
# [2] = biological target: Neu5Ac(a2-3)GalNAc(b1-4)GlcNAc
# Procedure, shortened: as §1
# [3] = biological target: Neu5Ac(a2-3)[GalNAc(b1-4)]Gal(b1-4)Glc
# Procedure, shortened: as §1
# [4] = biological target: Neu5Ac(a2-3)[GalNAc(b1-4)]Gal(b1-4)GlcNAc
# Procedure, shortened: as §1
# [5] = biological target: Neu5Ac(a2-3)[GalNAc(b1-4)]Gal(b1-4)GlcNAc(b1-3)GalNAc
# Procedure, shortened: as §1
# [6] = biological target: Neu5Ac(a2-3)[Neu5Ac(a2-6)]GalNAc
# Procedure, shortened: as §1
# Neu5Ac(a2-6)Gal = biological target: Neu5Ac(a2-6)Gal
# Procedure, shortened: as §1
# Neu5Ac(a2-6)Gal(b1-4)Glc = biological target: Neu5Ac(a2-6)Gal(b1-4)Glc
# Procedure, shortened: as §1
# [7] = biological target: Neu5Ac(a2-6)Gal(b1-4)GlcNAc
# Procedure, shortened: as §1
# [8] = biological target: Neu5Ac(a2-6)Gal(b1-4)GlcNAc(b1-2)Man(a1-3)Man(b1-4)GlcNAc(b1-4)GlcNAc
# Procedure, shortened: as §1
# [9] = biological target: Neu5Ac(a2-6)Gal(b1-4)GlcNAc(b1-2)Man(a1-3)[Gal(b1-4)GlcNAc(b1-2)Man(a1-6)]Man(b1-4)GlcNAc(b1-4)GlcNAc
# Procedure, shortened: as §1
# [10] = biological target: Neu5Ac(a2-6)Gal(b1-4)GlcNAc(b1-2)Man(a1-3)[GlcNAc(b1-2)Man(a1-6)]Man(b1-4)GlcNAc(b1-4)GlcNAc
# Procedure, shortened: as §1
# [11] = biological target: Neu5Ac(a2-6)Gal(b1-4)GlcNAc(b1-2)Man(a1-3)[GlcNAc(b1-2)Man(b1-4)GlcNAc(b1-2)Man(a1-6)]Man(b1-4)GlcNAc(b1-4)GlcNAc
# Procedure, shortened: as §1
# [12] = biological target: Neu5Ac(a2-6)Gal(b1-4)GlcNAc(b1-2)Man(a1-3)[Man(a1-6)]Man(b1-4)GlcNAc(b1-4)GlcNAc
# Procedure, shortened: as §1
# [13] = biological target: Neu5Ac(a2-6)Gal(b1-4)GlcNAc(b1-2)Man(a1-3)[Neu5Ac(a2-6)Gal(b1-4)GlcNAc(b1-2)Man(a1-6)]Man(b1-4)GlcNAc(b1-4)GlcNAc
# Procedure, shortened: as §1
# [14] = biological target: Neu5Ac(a2-6)Gal(b1-4)GlcNAc(b1-2)Man(a1-6)Man(b1-4)GlcNAc(b1-4)GlcNAc
# Procedure, shortened: as §1
# [15] = biological target: Neu5Ac(a2-6)Gal(b1-4)GlcNAc(b1-2)Man(a1-6)[Gal(b1-4)GlcNAc(b1-2)Man(a1-3)]Man(b1-4)GlcNAc(b1-4)GlcNAc
# Procedure, shortened: as §1
# [16] = biological target: Neu5Ac(a2-6)Gal(b1-4)GlcNAc(b1-2)Man(a1-6)[GlcNAc(b1-2)Man(a1-3)]Man(b1-4)GlcNAc(b1-4)GlcNAc
# Procedure, shortened: as §1
# [17] = biological target: Neu5Ac(a2-6)Gal(b1-4)GlcNAc(b1-2)Man(a1-6)[Man(a1-3)]Man(b1-4)GlcNAc(b1-4)GlcNAc
# Procedure, shortened: as §1
# [18] = biological target: Neu5Ac(a2-6)Gal(b1-4)GlcNAc(b1-3)Gal(b1-3)GlcNAc
# Procedure, shortened: as §1
# [19] = biological target: Neu5Ac(a2-6)Gal(b1-4)GlcNAc(b1-3)Gal(b1-4)GlcNAc
# Procedure, shortened: as §1
# [20] = biological target: Neu5Ac(a2-6)Gal(b1-4)GlcNAc(b1-3)Gal(b1-4)GlcNAc(b1-3)Gal(b1-4)GlcNAc
# Procedure, shortened: as §1
# [21] = biological target: Neu5Ac(a2-6)Gal(b1-4)GlcNAc(b1-3)Gal(b1-4)[Fuc(a1-3)]GlcNAc(b1-3)Gal(b1-4)[Fuc(a1-3)]GlcNAc
# Procedure, shortened: as §1
# [22] = biological target: Neu5Ac(a2-6)Gal(b1-4)GlcNAc(b1-3)GalNAc
# Procedure, shortened: as §1
binder,measurement,setting,value
"Lmo1413 (Listeria monocytogenes), Q8Y783 (protein) MKHAKKSLFTFIIFMTILSITFNPFSAKAAPLMLNLPAPQVDQLYIGDDYITGKLQQEVPMHYPGNAAYVLFNNKQYNITDYTVENDVNFRLKLPKTLEAGDTLNYFTITGNVLDPVAYPGQESYKLAGPFSPIEKANIQVNYVDETNQTLATSDTLSGKLGETYTTSPKAIDGYQVKETPTNATGTYTTNTETIQINYVYEKTAVEGANVSVEYINEATNESIAPTETLSGKIGTTFQAEVKEIDGYELSQVPSNQSGTYTDQTQSVIFKYKKITTPDEVAKDVTVTYKDTKGNQLADPVILKGDIGSTFETEAKSFKGYKLTKTPSNHSSVFTSDSQEVEYVYSKDDAVITPPVTPVNPDKPIINPVKPVNPATSTVPNKNISKKNTTKTVNQTGKTSTALQLPKTGDSENNLPLIIGVSLLISGVYIFTTRRKRVK",glycan array binding signal (z-score),[1],-0.286
same,glycan array binding signal (z-score),Neu5Ac(a2-3)GalNAc,-0.182
same,glycan array binding signal (z-score),[2],-0.107
same,glycan array binding signal (z-score),[3],-0.248
same,glycan array binding signal (z-score),[4],-0.22
same,glycan array binding signal (z-score),[5],-0.163
same,glycan array binding signal (z-score),[6],-0.27
same,glycan array binding signal (z-score),Neu5Ac(a2-6)Gal,-0.163
same,glycan array binding signal (z-score),Neu5Ac(a2-6)Gal(b1-4)Glc,-0.179
same,glycan array binding signal (z-score),[7],-0.258
same,glycan array binding signal (z-score),[8],-0.246
same,glycan array binding signal (z-score),[9],-0.261
same,glycan array binding signal (z-score),[10],-0.241
same,glycan array binding signal (z-score),[11],-0.269
same,glycan array binding signal (z-score),[12],-0.259
same,glycan array binding signal (z-score),[13],-0.268
same,glycan array binding signal (z-score),[14],-0.266
same,glycan array binding signal (z-score),[15],-0.282
same,glycan array binding signal (z-score),[16],-0.272
same,glycan array binding signal (z-score),[17],-0.265
same,glycan array binding signal (z-score),[18],-0.26
same,glycan array binding signal (z-score),[19],-0.206
same,glycan array binding signal (z-score),[20],-0.122
same,glycan array binding signal (z-score),[21],-0.196
same,glycan array binding signal (z-score),[22],-0.219
